# According to PubChem BioAssay AID1345082 (National Center for Advancing Translational Sciences (NCATS), 2018):
# Values joined by “and” are separate entries in the source; they are usually repeats but may differ in a detail not shown here. Equal entries are not always repeated. About 4,000 (4.3%) of roughly 94,000 compounds were called active. Inconclusive means that the source gave no clear call. Such entries were picked first, then a sample of the others. Calls follow the shape of the dose curve; as a rule, active = well fitted inhibition curve with a large enough effect; inconclusive = small, poorly fitted or top-dose-only effect; inactive = no such curve, though single readings can be large or run the other way. Potencies beside an inconclusive call are fits to weak or partial responses and may not hold up.
# Assay: Cytotoxic Profiling in NIH 3T3 Cell Line of Diverse Libraries Using Quantitative High-Throughput Screening; also: nearly all actives have a fitted effect of over 55% in size
# Conditions: NIH 3T3 viability, CellTiter-Glo ATP luminescence, 48-72 h; series mostly up to 96.7 µM
# In short: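 ATP-dependent luminescence (CellTiter-Glo) served as the viability signal for NIH 3T3 cells treated with compound for 48 or 72 hr at 37 °C.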
# Potency is read from the fitted curve at half-maximal effect; tags tell the direction and shape of the fitted curve.
row,SMILES,Potency
1,O=C(c1ccc(Cl)cc1)N1CC2(CCCN(Cc3ccccn3)C2)Cc2ccccc21 (stereo not given),"inconclusive: 11.2 µM [inhibitor, full curve, poor fit]"
2,CCCCn1nc(C2CCOC2)nc1-c1cnc(NC)nc1 (stereo not given),inactive
3,O=C(c1cc(-c2ccc(F)cc2)nc2ccccc12)N1CCCC(c2nc(C3CCOCC3)no2)C1 (stereo not given),"inconclusive: 50.1 µM [inhibitor, partial curve, poor fit]"
4,CCN(CC)C(=O)N1CCOC(c2ccc3cc(OC)ccc3c2)C1 (stereo not given),"inconclusive: 8.91 µM [inhibitor, full curve, poor fit]"
5,Cc1nn(-c2ccccn2)c(C)c1[C@@H]1C=C[C@@H](NC(=O)c2ccco2)C1,"inconclusive: 100 µM [inhibitor, partial curve, poor fit]"
6,COc1ccc(F)cc1-c1ccc(COc2ccc3c(cnn3CCC(=O)O)c2)cc1,inactive
7,CCN(Cc1ccccc1)C(=O)CC1CCCCN(Cc2ccccc2)C1=O (stereo not given),"inconclusive: 35.5 µM [inhibitor, partial curve, poor fit]"
8,Cc1nn(-c2ccc(F)cc2)c(Oc2ccc(F)cc2F)c1CCC(=O)NC(C)C,"inconclusive: 50.1 µM [inhibitor, partial curve, poor fit]"
9,COc1cccc(CN2CCCCCCNC(=O)CC2c2ccccc2)c1OC (stereo not given),active: 39.8 µM
10,Nc1ccc2ncnc(N3CCCCC3)c2c1,"inconclusive: 35.5 µM [inhibitor, partial curve]"
11,C=CCN1CC(COc2ccccc2)Oc2nc(C)ccc2C1=O (stereo not given),"inconclusive: 31.6 µM [inhibitor, partial curve, poor fit]"
12,O=C(NCCN[S+](=O)([O-])c1cccc(C(F)(F)F)c1)c1ccc(-c2cncnc2)cc1,inactive
13,COCC1CN(C2CCC2)CC12CCN(S(=O)(=O)c1cccnc1)CC2 (stereo not given),"inconclusive: 56.2 µM [inhibitor, partial curve, poor fit]"
14,COc1ccc(-c2cc(N3CCN(C(=O)c4ccncc4)CC3)n[nH]2)cc1,inactive
15,COCCCn1c(C)cc(C(=O)N2CC(c3noc(COc4ccc(F)cc4)n3)C2)c1C,"inconclusive: 50.1 µM [inhibitor, partial curve, poor fit]"
16,COc1ccc2c(c1)C(CN1CCN(CC(=O)OC(C)(C)C)CC1)=CC(C)(C)O2,"inconclusive: 39.8 µM [inhibitor, partial curve, poor fit]"
17,COc1ccc(CC(=O)NC2CCN(c3cc(-c4ccc(Cl)cc4)[nH]n3)C2)cc1OC (stereo not given),"inconclusive: 10 µM [inhibitor, partial curve, poor fit]"
18,CCn1nc(C)cc1C(=O)NCc1cccnc1N1CCOCC1,inactive
19,CCC1=C(C(=O)OC)C(c2cccc(F)c2)N2C(CC(=O)N3CCC(C)CC3)=CSC2=N1 (stereo not given),"inconclusive: 50.1 µM [inhibitor, partial curve, poor fit]"
20,O=C(c1ccccc1Cl)N1CCC(C(=O)N2CCC(c3ccccc3)CC2)CC1,"inconclusive: 50.1 µM [inhibitor, partial curve, poor fit]"
21,CCn1nccc1C(=O)N1CCC2(CC1)NC(=O)N(c1cccc(F)c1)N2,inactive
22,CCCCN1C(=O)c2ccccc2C(C(=O)NCCc2ccc(OC)cc2)C12CCCCC2 (stereo not given),"inconclusive: 70.8 µM [inhibitor, partial curve, poor fit]"

row,SMILES,Potency
1,CCn1nc(C)c(CN2CCCC(CNC(=O)c3cccc(OC)c3OC)C2)c1C (stereo not given),inactive
2,Cc1cc(-c2nc3ccncc3[nH]2)c(C)o1,"inconclusive: 89.1 µM [inhibitor, partial curve, poor fit] and inconclusive: 112 µM [inhibitor, partial curve, poor fit]"
3,Cc1noc2c(NCC3CCOCC3)cc(-c3cccnc3)nc12,"inconclusive: 12.6 µM [inhibitor, full curve, poor fit]"
4,Cc1nn(C)c2nc(-c3ccccn3)nc(NCc3ccc4c(c3)OCO4)c12,active: 28.2 µM
5,O=C(c1ccc2c(c1)ncn2CCO)N1CCCC(CCc2ccccc2F)C1 (stereo not given),"inconclusive: 44.7 µM [inhibitor, partial curve, poor fit]"
6,Cc1cccc(N2CCN(c3nccc(-c4ccccn4)n3)CC2)n1,inactive
7,COc1ccc(NC(=O)Cn2c(N3CCc4ccccc4C3)nc(C)cc2=O)cc1OC,"inconclusive: 50.1 µM [inhibitor, partial curve, poor fit]"
8,COc1ccc(C2(C(=O)N3CCC4(CC3)NCCc3c4[nH]c4ccccc34)CC2)cc1,"inconclusive: 44.7 µM [inhibitor, partial curve, poor fit]"
9,COc1cccc(-c2noc(CC3CCN(C(=O)c4ccc(OC)cc4C)CC3)n2)c1,"inconclusive: 28.2 µM [inhibitor, partial curve]"
10,COc1ccc(CN2CCNc3cc(Nc4ccccc4)ncc3C2)cc1O,active: 79.4 µM
11,Cc1noc2c(N3CCNC(=O)C3)cc(-c3cccs3)nc12,active: 31.6 µM
12,O=C(c1cccnc1)N1CCC(c2cc(-c3ccc(F)cc3)n[nH]2)CC1,"inconclusive: 44.7 µM [inhibitor, partial curve, poor fit]"
13,Cc1ccc(NC(=O)Nc2ccc(C)n(CC(=O)N3CCC(C)CC3)c2=O)cc1,inactive
14,CN1CCN(c2nc3c(c(=O)[nH]2)CCN(CCc2ccccc2)CC3)CC1,inactive
15,O=C(NC1CCc2nn(CC3CC3)c(=O)n2CC1)c1ccc2cc[nH]c2c1 (stereo not given),inactive
16,COc1ccc(N2CC3CCC(C2)N3CC(C)C)cc1,inactive
17,CCC(=O)N1CCc2sc(C(=O)NC3CCN(Cc4ccccc4)CC3)cc2C1,inactive
18,CNC1CCN(c2ccc(-c3nc(CCCc4ccccc4)no3)cn2)CC1,"inconclusive: 31.6 µM [inhibitor, full curve, poor fit]"
19,CN1CCCCCC(O)c2cc(C(=O)N3CCN(Cc4ccccc4)CC3)ccc21 (stereo not given),"inconclusive: 44.7 µM [inhibitor, partial curve, poor fit]"
20,O=C(c1ccc(F)cc1)N1CCCC(C(=O)N2CCC(N3CCOCC3=O)CC2)C1 (stereo not given),inactive
21,CNC(=O)c1cc(C2CC2)nc2c1c(C1CCN([S+](=O)([O-])c3cccc(C(F)(F)F)c3)CC1)nn2C,"inconclusive: 35.5 µM [inhibitor, partial curve]"
22,CC(C)(C)c1ccc(CN2CC3(COCC2=O)CN(c2cnccn2)C3)cc1,"inconclusive: 70.8 µM [inhibitor, partial curve, poor fit]"

row,SMILES,Potency
1,CC(C)C(=O)N1Cc2ccccc2CC2(CCCN(Cc3ccncc3)C2)C1 (stereo not given),inactive
2,O=C(Cn1ccn2nc(-c3ccc(F)cc3)c(CO)c2c1=O)NCCc1ccc(Cl)cc1,"inconclusive: 70.8 µM [inhibitor, single point]"
3,CCN1CC2(CCN(C(=O)c3cnc4c(O)cccn4c3=O)CC2)OC1=O,inactive
4,O=C1Cc2c(-c3ccc(C(=O)N4CCOCC4)cc3)n[nH]c2CN1Cc1ccccc1,"inconclusive: 63.1 µM [inhibitor, partial curve, poor fit]"
5,CC(=O)Nc1cccc(C(=O)N2CCC(n3cc(-c4nc(C(C)C)no4)nn3)C2)c1 (stereo not given),inactive
6,COc1ccc(N2CCN(c3nc(C(=O)N4CCCC(C)C4)cs3)CC2)cc1 (stereo not given),"inconclusive: 44.7 µM [inhibitor, partial curve, poor fit]"
7,O=C(NCc1cccc(F)c1)c1nc2c(o1)CCN(Cc1ccc3[nH]ccc3c1)CC2,"inconclusive: 89.1 µM [inhibitor, partial curve]"
8,Cc1nn(-c2ccccc2)c2c1C(C1CC1)N(C1CCN([S+](C)(=O)[O-])C1)C2=O (stereo not given),"inconclusive: 56.2 µM [inhibitor, partial curve, poor fit]"
9,Cc1cccc(CN2CCOc3c(O)cc(-c4ccccc4C)cc3C2)n1,"inconclusive: 50.1 µM [inhibitor, partial curve, poor fit]"
10,O=C(Cc1c[nH]c2ncc(-c3ccccc3)cc12)NCCCn1ccnc1,"inconclusive: 70.8 µM [inhibitor, partial curve]"
11,COc1ccc(S(=O)(=O)NC[C@H]2COCc3nc4cc(C)ccc4n32)cc1,"inconclusive: 31.6 µM [inhibitor, partial curve, poor fit]"
12,COC(=O)C1=CN(CC(=O)Nc2ccccc2C(F)(F)F)S(=O)(=O)N=C1C,inactive
13,CN1CCN(C(=O)C2CCc3nc(N4CCN(C(=O)C5CCC5)CC4)sc3C2)CC1 (stereo not given),inactive
14,O=C(C1CC(=O)N(c2n[nH]c3cccc(F)c23)C1)N1CCCC1 (stereo not given),inactive
15,O=C(NC1CCCCC1)N1CCC(Oc2ncccc2C(=O)N2CCCCC2)C1 (stereo not given),inactive
16,Cc1cc(C(=O)N2CCOC[C@H](Oc3cnccn3)C2)n(C)n1,inactive
17,CCCN1CCCC12Cc1ccccc1CN([S+](=O)([O-])c1ccccc1)C2 (stereo not given),"inconclusive: 50.1 µM [inhibitor, partial curve, poor fit]"
18,COCCN1CCCCCC(O)c2cc(C(=O)NCc3ccc(C)o3)ccc21 (stereo not given),"inconclusive: 70.8 µM [inhibitor, single point]"
19,O=C(c1n[nH]c2c1CCC2)N1CCC(c2nccn2Cc2ccccn2)CC1,inactive
20,CNC(=O)[C@H]1C[C@]2(CCCCN(CCO)C2=O)N(C(=O)c2cccc(OC)c2)[C@H]1c1ccco1,"inconclusive: 63.1 µM [inhibitor, partial curve, poor fit]"
21,Cc1ccccc1C(=O)N1CCN(c2nccc(Nc3ccccc3Cl)n2)CC1,"inconclusive: 50.1 µM [inhibitor, partial curve, poor fit]"
